Results: the supplement of paper PMC11417369
± gives the standard deviation of the averaged measurements. Some of the results follow.

What follows are sequences tested on PfAP2-I AP2 domain 3 (GST-tagged) (assay: gcPBM binding intensity (ln(normalized median fluorescence intensity)); higher = stronger DNA binding).
How it was run: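 Binding of GST-tagged P. falciparum DNA-binding domains, expressed in E. coli and used at about 25 μg on average, was carried out for 1 h in 1× PBS containing 1% milk, 0.2 mg/ml BSA, 0.5% salmon testes DNA and 0.03% Triton X-100. The target was an Agilent 4 × 180k array of primer-extended double-stranded 36-bp intergenic genomic probes plus negative controls, read with Alexa488 anti-GST antibody at 488 nm. Binding intensity is the highest Masliner-normalised natural-log median intensity across replicate spots of either probe orientation.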

| Sequence | gcPBM binding intensity (ln) |
| --- | --- |
| AATAAATAAATAAATAAAACAAAGGGATTACATACA [TGCATGCA_negctrl_site513] | 7.64 ± 0.62 |
| CACAACATATATATATATATATATATATATATGTGT [CACACA_negctrl_site28] | 9.005 ± 0.078 |
| ATATTTTGTTATGTAGATGTTGGTAGGAATTTTGGT [CACACA_negctrl_site1104] | 7.79 ± 0.45 |
| TACTTTTTAGGAAAGTGTACAAGCATATAAGGAATA [XGTACX_site2834] | 8.04 ± 0.57 |
| TTAAAAAAATATTGAAGTACACACATTATAAACTTT [XGTACX_site3548] | 7.89 ± 0.38 |
| TTTCATATATATGAAACACACAAAGGAAAAAAAATT [CACACA_site4144] | 8.04 ± 0.77 |
| ATATAATAAAATTAATGTACATATATGTATTATATA [XGTACX_site3283] | 7.59 ± 0.26 |
| GCTCATATGACAACAACACACAAAAAAATAAAATGA [CACACA_site714] | 7.8 ± 0.69 |
| AACATAATCTCATATACACACAAAAATATTGAAATA [CACACA_site7085] | 7.7 ± 0.49 |
| ACAAGTTTATTTGTTGCACACATATAAGTAGAGAAA [CACACA_site8994] | 8.99 ± 0.2 |
| AAAAAAAAAAAACACACACACATAGACCTCCAATAG [CACACA_site3562] | 7.93 ± 0.37 |
| AGGTAGAAAAAAGACACACACATTATATATATATAT [CACACA_site4367] | 9.43 ± 0.33 |
| ATATGCTACATTATATGTACACACATATACATATAT [XGTACX_site1656] | 8.14 ± 0.37 |
| TAATATAAAGAAATATCAATAATTTGGGCAAATGCC [GTGCAC_negctrl_site621] | 7.53 ± 0.45 |
| AAGGTGGTTATTAAATGTACACAGACATATACAAAA [XGTACX_site3007] | 8.2 ± 0.17 |
| TTTTATGCATGTGAAGTGCAAAATAAAAAATAAAAT [GTGCAC_site9612] | 10.8 ± 0.4 |
| TATATTTGTTAATTTTGTACGTATGGATATACATAA [XGTACX_site5100] | 7.72 ± 0.38 |
| TATAAATATAGAATTACACACAATGTTCTATAAATA [CACACA_site7508] | 7.35 ± 0.42 |
| TTTGTGGTTACATGTGCACACACTTATTTCGTTCTT [CACACA_site1435] | 9.38 ± 0.4 |
| GATATGTTTTCCTAGGTTCATGATGATAGGTAGTTT [XGTACX_negctrl_site217] | 7.78 ± 0.63 |
| TGTTAATATATCATTATGTTATAGGTTCAGCTGGGA [CACACA_negctrl_site401] | 7.78 ± 0.33 |
| AATATATAAATTGACACACACATATATACATATATA [CACACA_site1213] | 7.67 ± 0.48 |

| Sequence | gcPBM binding intensity (ln) |
| --- | --- |
| AATTTTTATATAATTTAACACACATTTCATATAAAA [CACACA_site9018] | 8.1 ± 0.33 |
| TTAGGATATTTATTTCGTACATATATTTTTAATTGT [XGTACX_site582] | 7.38 ± 0.49 |
| TATAAATTATTTATCACACATAAAACAAAAATAAGA [CACACA_site5493] | 8.04 ± 0.4 |
| TACTTCATATAATTAGCACACAATAATTTCTCATTT [CACACA_site2872] | 8.31 ± 0.45 |
| ATATATATTAAAAATAGTACATATAATAAAAATCAT [XGTACX_site4265] | 7.95 ± 0.46 |
| TGTATATGTTTAATTAGTACATATAAAGTAACAATA [XGTACX_site1207] | 7.91 ± 0.51 |
| ATATGAAATATATGTAGTACACATAATTAAAAGTAG [XGTACX_site6490] | 8.11 ± 0.54 |
| TACATATTCCTACAAATGTATAAATTATAAATATTA [XGTACX_negctrl_site30] | 7.38 ± 0.25 |
| AACGATATAGGTACTACACACATTATGTCATCCTAT [CACACA_site7205] | 7.96 ± 0.61 |
| TTCGTCTTTTTTCTCACACACCCTTTTTATTAAAAG [CACACA_site7225] | 8.34 ± 0.47 |
| AATAATATACCTCTTGTGCACATATTAAAAGTTCAT [GTGCAC_site9536] | 10.3 ± 0.62 |
| ATAATACAAAACACAAGTACATAAATTAAAAAGATG [XGTACX_site7839] | 8.15 ± 0.48 |
| AAAGAATACATATATTGTACATATATATATACCGTT [XGTACX_site6250] | 7.86 ± 0.75 |
| AGAATTAAAATAAAGGTGCATTTTTTTGTTTCATGT | 9.94 ± 0.23 |
| AGTTATTTTATAGAATATGAATAATTTTACTTTTCA [XGTACX_negctrl_site403] | 7.21 ± 0.53 |
| TTCATTCATTTTATTACACACAAAAAAAAAAAAAAA [CACACA_site3680] | 8.05 ± 0.35 |
| AATTTCATTTTACTTATCTAATATTTATAATCTTTT [CACACA_negctrl_site636] | 7.71 ± 0.56 |
| AAAAAAAAAGGTACTACACACTATTCTCAATAGAAA [CACACA_site6193] | 7.67 ± 0.52 |
| AAAAAAAAAAAAAAAAGTACATATAATAAATAATGA [XGTACX_site7931] | 8.62 ± 0.45 |
| TATATCTTAATATTTACACACATGCGCACCCATAAA [CACACA_site5349] | 9.65 ± 0.41 |
| AATCTTTGTAATAAAAGTACATTAATTTTATTAATA [XGTACX_site8325] | 7.67 ± 0.092 |
| ACACATACAACGTGGTGTACAAATAATTATAATCAA [XGTACX_site2287] | 7.93 ± 0.63 |
